# The supplement of paper PMC8728848
# Some of the results follow.
# How the values were obtained:
# Experiment in all cases: glycan array binding signal (z-score within array); higher = stronger binding
# Conditions in all cases: glycan notation: IUPAC condensed, linker removed
# Gal(a1-2)Gal = biological target: Gal(a1-2)Gal
# Procedure, shortened: (§1)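 Negative Z-scores can be read as non-binding. The Z-score is calculated within each array and then averaged across arrays of one protein sequence at different concentrations or buffers and across linkers. Arrays, 3228 in all, were curated from the Consortium for Functional Glycomics database and kept only where the protein sequence was available.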
# Gal(a1-3)Gal = biological target: Gal(a1-3)Gal
# Procedure, shortened: as §1
# Gal(a1-3)Gal(b1-3)GlcNAc = biological target: Gal(a1-3)Gal(b1-3)GlcNAc
# Procedure, shortened: as §1
# Gal(a1-3)Gal(b1-4)Glc = biological target: Gal(a1-3)Gal(b1-4)Glc
# Procedure, shortened: as §1
# Gal(a1-3)Gal(b1-4)GlcNAc = biological target: Gal(a1-3)Gal(b1-4)GlcNAc
# Procedure, shortened: as §1
# [1] = biological target: Gal(a1-3)Gal(b1-4)[Fuc(a1-3)]GlcNAc
# Procedure, shortened: as §1
# Gal(a1-3)GalNAc = biological target: Gal(a1-3)GalNAc
# Procedure, shortened: as §1
# [2] = biological target: Gal(a1-3)[Gal(a1-4)]Gal(b1-4)GlcNAc
# Procedure, shortened: as §1
# Gal(a1-4)Gal(b1-4)Glc = biological target: Gal(a1-4)Gal(b1-4)Glc
# Procedure, shortened: as §1
# Gal(a1-4)Gal(b1-4)GlcNAc = biological target: Gal(a1-4)Gal(b1-4)GlcNAc
# Procedure, shortened: as §1
# Gal(a1-4)GlcNAc = biological target: Gal(a1-4)GlcNAc
# Procedure, shortened: as §1
# Gal(a1-6)Glc = biological target: Gal(a1-6)Glc
# Procedure, shortened: as §1
# Gal(b1-2)Gal = biological target: Gal(b1-2)Gal
# Procedure, shortened: as §1
# Gal(b1-3)Gal = biological target: Gal(b1-3)Gal
# Procedure, shortened: as §1
# Gal(b1-3)GalNAc = biological target: Gal(b1-3)GalNAc
# Procedure, shortened: as §1
# [3] = biological target: Gal(b1-3)GalNAc(b1-3)Gal(a1-4)Gal(b1-4)Glc
# Procedure, shortened: as §1
# [4] = biological target: Gal(b1-3)GalNAc(b1-4)Gal(b1-4)Glc
# Procedure, shortened: as §1
# [5] = biological target: Gal(b1-3)GalNAc(b1-4)[Neu5Ac(a2-3)]Gal(b1-4)Glc
# Procedure, shortened: as §1
# Gal(b1-3)GlcNAc = biological target: Gal(b1-3)GlcNAc
# Procedure, shortened: as §1
# [6] = biological target: Gal(b1-3)GlcNAc(b1-3)Gal(b1-4)Glc
# Procedure, shortened: as §1
# [7] = biological target: Gal(b1-3)GlcNAc(b1-3)Gal(b1-4)GlcNAc
# Procedure, shortened: as §1
# [8] = biological target: Gal(b1-3)[Fuc(a1-4)]GlcNAc
# Procedure, shortened: as §1
# [9] = biological target: Gal(b1-3)[Fuc(a1-4)]GlcNAc(b1-3)Gal(b1-4)GlcNAc
# Procedure, shortened: as §1
# [10] = biological target: Gal(b1-3)[Fuc(a1-4)]GlcNAc(b1-3)Gal(b1-4)[Fuc(a1-3)]GlcNAc
# Procedure, shortened: as §1
# [11] = biological target: Gal(b1-3)[GlcNAc(b1-6)]GalNAc
# Procedure, shortened: as §1
# [12] = biological target: Gal(b1-3)[Neu5Ac(a2-6)]GalNAc
# Procedure, shortened: as §1
# [13] = biological target: Gal(b1-3)[Neu5Ac(a2-6)]GlcNAc(b1-6)Gal(b1-4)Glc
# Procedure, shortened: as §1
# [14] = biological target: Gal(b1-3)[Neu5Ac(b2-6)]GalNAc
# Procedure, shortened: as §1
# [15] = biological target: Gal(b1-4)GalNAc(a1-3)[Fuc(a1-2)]Gal(b1-4)GlcNAc
# Procedure, shortened: as §1
# [16] = biological target: Gal(b1-4)GalNAc(b1-3)[Fuc(a1-2)]Gal(b1-4)GlcNAc
# Procedure, shortened: as §1
# Gal(b1-4)Glc = biological target: Gal(b1-4)Glc
# Procedure, shortened: as §1
# Gal(b1-4)Glc6S = biological target: Gal(b1-4)Glc6S
# Procedure, shortened: as §1
# Gal(b1-4)GlcNAc = biological target: Gal(b1-4)GlcNAc
# Procedure, shortened: as §1
# [17] = biological target: Gal(b1-4)GlcNAc(b1-2)Man(a1-3)[Gal(b1-4)GlcNAc(b1-2)Man(a1-6)]Man(b1-4)GlcNAc(b1-4)GlcNAc
# Procedure, shortened: as §1
# [18] = biological target: Gal(b1-4)GlcNAc(b1-3)Gal(b1-4)Glc
# Procedure, shortened: as §1
# [19] = biological target: Gal(b1-4)GlcNAc(b1-3)Gal(b1-4)GlcNAc
# Procedure, shortened: as §1
# [20] = biological target: Gal(b1-4)GlcNAc(b1-3)Gal(b1-4)GlcNAc(b1-3)Gal(b1-4)GlcNAc
# Procedure, shortened: as §1
# [21] = biological target: Gal(b1-4)GlcNAc(b1-3)Gal(b1-4)[Fuc(a1-3)]GlcNAc(b1-3)Gal(b1-4)[Fuc(a1-3)]GlcNAc
# Procedure, shortened: as §1
binder,measurement,setting,value
SIGNR8 (Mus musculus) (protein) MAGEPEFHQSKNHEEEVTSGEQGFAEHDPEGLICSSKSLQGHLTQVPWLLLLLISLGLFLLMLATLVQVSRIRAYSQGQTQDQQGSSSLDKVAVPREQTHSGLEQIQQIQQQLTQFNASLAGLCRPCPWDWELFQGSCYLFSRTLGSWETSASSCEDLGAHLVIVNSVSEQRFMKYWNVRKNQRSWIGLSDHIHEGSWQWVDGSALKFSFWKEGEPNNDGDEDCVELFMDDWNDNKCTEQNFWVCEQPSAPCPHH,glycan array binding signal (z-score),Gal(a1-2)Gal,-0.384
same,glycan array binding signal (z-score),Gal(a1-3)Gal,2.62
same,glycan array binding signal (z-score),Gal(a1-3)Gal(b1-3)GlcNAc,2.63
same,glycan array binding signal (z-score),Gal(a1-3)Gal(b1-4)Glc,3.07
same,glycan array binding signal (z-score),Gal(a1-3)Gal(b1-4)GlcNAc,3.18
same,glycan array binding signal (z-score),[1],2.67
same,glycan array binding signal (z-score),Gal(a1-3)GalNAc,0.051
same,glycan array binding signal (z-score),[2],4.59
same,glycan array binding signal (z-score),Gal(a1-4)Gal(b1-4)Glc,1.58
same,glycan array binding signal (z-score),Gal(a1-4)Gal(b1-4)GlcNAc,2.59
same,glycan array binding signal (z-score),Gal(a1-4)GlcNAc,2.92
same,glycan array binding signal (z-score),Gal(a1-6)Glc,0.814
same,glycan array binding signal (z-score),Gal(b1-2)Gal,-0.374
same,glycan array binding signal (z-score),Gal(b1-3)Gal,4.35
same,glycan array binding signal (z-score),Gal(b1-3)GalNAc,-0.377
same,glycan array binding signal (z-score),[3],-0.382
same,glycan array binding signal (z-score),[4],-0.375
same,glycan array binding signal (z-score),[5],-0.329
same,glycan array binding signal (z-score),Gal(b1-3)GlcNAc,-0.36
same,glycan array binding signal (z-score),[6],-0.386
same,glycan array binding signal (z-score),[7],-0.379
same,glycan array binding signal (z-score),[8],-0.366
same,glycan array binding signal (z-score),[9],-0.376
same,glycan array binding signal (z-score),[10],-0.386
same,glycan array binding signal (z-score),[11],-0.385
same,glycan array binding signal (z-score),[12],-0.39
same,glycan array binding signal (z-score),[13],-0.396
same,glycan array binding signal (z-score),[14],-0.394
same,glycan array binding signal (z-score),[15],-0.405
same,glycan array binding signal (z-score),[16],-0.404
same,glycan array binding signal (z-score),Gal(b1-4)Glc,2.38
same,glycan array binding signal (z-score),Gal(b1-4)Glc6S,0.338
same,glycan array binding signal (z-score),Gal(b1-4)GlcNAc,1.07
same,glycan array binding signal (z-score),[17],2.8
same,glycan array binding signal (z-score),[18],2.76
same,glycan array binding signal (z-score),[19],2.1
same,glycan array binding signal (z-score),[20],1.7
same,glycan array binding signal (z-score),[21],1.68
